# From PubChem BioAssay AID504339 (National Center for Advancing Translational Sciences (NCATS), 2011)
# Screen size: about 390,000 compounds; about 17,000 (4.4%) were called active. Inconclusive results, whose numbers are uncertain, are shown with a selection of clear calls. The call rests on the fitted dose curve; in most records, active means well fitted inhibition curve with a large enough effect; inconclusive means small, poorly fitted or top-dose-only effect; inactive means no such curve, though single readings can be large or run the other way. Where the call is inconclusive, the potency comes from a doubtful curve fit.
# Biological target: Lysine-specific demethylase 4A (Homo sapiens) (UniProt O75164)
# Experiment: qHTS Assay for Inhibitors of JMJD2A-Tudor Domain; further: nearly all actives have a fitted effect of over 50% in size
# Settings: AlphaScreen JMJD2A-Tudor / H3K4me3 peptide binding; activity change, negative = inhibition: at 114 µM (top of the series)
# On the % scale 0 is the no-effect control and ±100 the full control effect; potency means the concentration at half of the fitted maximal effect; tags describe the fitted curve by direction and shape.
# Chain of UniProt O75164 (O75164 whole entry, looked up, the tested form may be a part): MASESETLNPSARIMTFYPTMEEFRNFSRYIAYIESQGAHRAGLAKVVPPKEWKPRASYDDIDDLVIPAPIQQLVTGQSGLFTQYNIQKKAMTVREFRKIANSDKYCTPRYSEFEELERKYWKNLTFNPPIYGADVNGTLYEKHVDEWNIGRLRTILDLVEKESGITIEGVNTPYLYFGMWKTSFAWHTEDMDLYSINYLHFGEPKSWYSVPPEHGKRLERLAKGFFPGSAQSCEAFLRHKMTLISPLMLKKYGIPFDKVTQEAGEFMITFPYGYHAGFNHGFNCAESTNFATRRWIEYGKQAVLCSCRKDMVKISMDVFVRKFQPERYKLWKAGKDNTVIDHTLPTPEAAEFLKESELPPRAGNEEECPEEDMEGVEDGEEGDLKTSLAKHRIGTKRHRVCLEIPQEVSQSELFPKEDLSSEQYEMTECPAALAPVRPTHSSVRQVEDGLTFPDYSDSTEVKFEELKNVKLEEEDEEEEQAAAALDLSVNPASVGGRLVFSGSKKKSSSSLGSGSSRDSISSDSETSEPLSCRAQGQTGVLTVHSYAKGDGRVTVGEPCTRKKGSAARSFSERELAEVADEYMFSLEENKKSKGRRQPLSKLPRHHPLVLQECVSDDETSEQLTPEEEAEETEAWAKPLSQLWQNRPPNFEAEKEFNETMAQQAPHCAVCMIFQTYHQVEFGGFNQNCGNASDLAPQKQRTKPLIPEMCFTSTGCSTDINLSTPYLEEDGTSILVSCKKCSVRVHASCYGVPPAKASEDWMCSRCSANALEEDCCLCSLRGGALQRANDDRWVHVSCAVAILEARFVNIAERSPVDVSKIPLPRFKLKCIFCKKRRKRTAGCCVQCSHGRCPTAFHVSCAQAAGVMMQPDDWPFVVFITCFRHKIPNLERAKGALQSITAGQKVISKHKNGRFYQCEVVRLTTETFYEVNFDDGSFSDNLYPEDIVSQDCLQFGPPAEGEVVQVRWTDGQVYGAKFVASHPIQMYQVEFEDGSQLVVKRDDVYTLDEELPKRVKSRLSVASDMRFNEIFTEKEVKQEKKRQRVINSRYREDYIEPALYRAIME
SMILES,Potency,"activity change, negative = inhibition"
O=C1C=CC(=O)c2c(O)c(CO)c(CO)c(O)c21,active: 2.24 µM,
CCN(CC)c1ccc(NC(=O)CCS(=O)(=O)c2ccc(Br)cc2)c(C)c1,active: 11.2 µM,
COc1cccc(OC)c1C(=O)N1CCN(Cc2ccc3c(c2)OCO3)CC1,active: 5.01 µM,
N=c1c2c(-c3ccccc3)c(-c3ccccc3)n(Cc3ccccc3)c2ncn1CCCn1ccnc1,"inconclusive: 50.1 µM [inhibitor, partial curve]",
COc1ccc(/C=C/C(=O)c2ccc3c4c(cccc24)CC3)cc1OC,"inconclusive: 35.5 µM [inhibitor, single point]",
COc1cccc(N2CCN(C(=O)c3cc(-c4ccc(F)cc4)[nH]c3C)CC2)c1,"inconclusive: 44.7 µM [inhibitor, partial curve]",
COc1ccccc1-c1nnc(NC(=O)CCS(=O)(=O)c2ccccc2)o1,"inconclusive: 4.47 µM [inhibitor, full curve, poor fit]",
Cc1ccc(NS(=O)(=O)c2ccc(Cl)c(NC(=S)NC(=O)C3CCCCC3)c2)cc1Cl,"inconclusive: 56.2 µM [inhibitor, partial curve]",
Nc1ccc(C(=O)Nc2ccc(OC(F)(F)C(F)F)c(NC(=O)c3ccc(N)cc3)c2)cc1,,inactive: -26.4%
Cc1cc(CN(C)C(=O)C2CCC(=O)N(CCc3cccc(F)c3)C2)on1 (configuration not stated),,inactive: -6.85%
Cc1ccc(S(=O)(=O)N2CCCC2C(=O)OCc2ccco2)cc1 (configuration not stated),active: 56.2 µM,
Cc1ccc(NCc2ccccc2F)cc1,,inactive: -0%
COc1cc(/C=C/C(=O)OCC(=O)NCCc2ccc(S(N)(=O)=O)cc2)ccc1OCC#N,,inactive: 2.75%
NC(=O)c1cc[n+](CC2=C(C(=O)O)N3C(=O)[C@@H](NC(=O)C(c4ccccc4)S(=O)(=O)[O-])[C@H]3SC2)cc1 (some centres not stated),active: 1.12 µM,
O=C(NC(=S)NCCC1=CCCCC1)c1ccccc1Br,,inactive: -5.59%
CCCCCOc1ccc(CSc2n[nH]c(C)n2)cc1,"inconclusive: 31.6 µM [inhibitor, single point]",
CCOC(=O)C1=C(C)N(c2ccc(OC)cc2)C(=O)/C1=C\c1ccc(O)c(OCC)c1,active: 14.1 µM,
O=C(O)c1cccc(NC(=S)NC(=O)c2ccc(-c3ccc(Cl)cc3)o2)c1,"inconclusive: 79.4 µM [inhibitor, partial curve]",
CCOC(=O)c1c(NC(=O)c2ccco2)sc2c1CCCC2,"inconclusive: 22.4 µM [inhibitor, single point]",
Cc1ccc(C(=O)NCc2ccco2)cc1S(=O)(=O)N1CCCCC1,"inconclusive: 56.2 µM [inhibitor, partial curve]",
Cc1onc(-c2ccccc2)c1-c1csc(N/N=C/c2ccccc2)n1,"inconclusive: 11.2 µM [inhibitor, full curve, poor fit]",
Cc1cccn2c(=O)cc(CSc3nnc(NC(=O)COc4ccccc4)s3)nc12,active: 56.2 µM,
CCN(C(=O)CSc1nnc2c3ccccc3n(CC)c2n1)C1CCS(=O)(=O)C1 (configuration not stated),,inactive: -27%
Cc1c(CCC(=O)O)c(=O)oc2cc(OCc3ccccc3Br)ccc12,"inconclusive: 100 µM [inhibitor, partial curve]",

SMILES,Potency,"activity change, negative = inhibition"
Cc1c(Cl)cccc1NC(c1ccc(F)cc1)c1nnc(-c2ccccc2)o1 (configuration not stated),,inactive: 15%
CCc1nc(SCC(=O)N2CCN(C(=O)c3ccco3)CC2)c2c3c(sc2n1)CCCC3,"inconclusive: 79.4 µM [inhibitor, partial curve]",
COc1ccc(-c2c(C)nn3c(C(F)(F)F)cc(-c4ccccc4)nc23)cc1OC,"inconclusive: 7.94 µM [inhibitor, full curve]",
CN(CC(=O)NCc1ccc(F)cc1)S(=O)(=O)c1ccc2[nH]c3c(c2c1)CCCC3,"inconclusive: 28.2 µM [inhibitor, full curve]",
Cc1cc(C)n(-c2cc(N3CCN(C(=O)c4cccc(Br)c4)CC3)ccc2[N+](=O)[O-])n1,"inconclusive: 56.2 µM [inhibitor, partial curve]",
O=C(O)CCc1ccc(-c2ccc(Cl)cc2)o1,"inconclusive: 39.8 µM [inhibitor, full curve]",
CCOC(=O)CSC1=C(C#N)C(=O)NC(c2ccc(OC)cc2)S1 (configuration not stated),active: 25.1 µM,
COc1ccccc1OCC(=O)N1CCC(c2nc3ccccc3o2)CC1,,inactive: 7.95%
O=C(COC(=O)c1cc2c(s1)CCCC2)Nc1ccc(Cl)cn1,,inactive: 2.06%
CCCS(=O)(=O)c1ncc(Cl)c(C(=O)Nc2c(C(=O)Nc3ccccc3)oc3ccccc23)n1,"inconclusive: 28.2 µM [inhibitor, partial curve]",
COc1ccc(C2c3cc4c(cc3OC(NNC(N)=O)C2C)OCO4)cc1 (configuration not stated),"inconclusive: 50.1 µM [inhibitor, partial curve]",
Cc1nnc2sc(SCC(=O)Nc3cccc(Cl)c3)nn2c1=O,"inconclusive: 89.1 µM [inhibitor, single point]",
O=C1CN(C(=O)CSc2nc3ccccc3c(=O)n2Cc2ccc(F)cc2)c2ccccc2N1,,inactive: -16.7%
NC(=O)CC(NC(=O)c1cccc(Br)c1)c1ccc(NC2CCCCCCC2)c([N+](=O)[O-])c1 (configuration not stated),"inconclusive: 22.4 µM [inhibitor, full curve]",
O=CC(O)C1OC(=O)C(O)C1O (configuration not stated),active: 22.4 µM,
CCc1ccc(OCC(=O)NNC(=S)NC(=O)C2CCCCC2)c(Br)c1,"inconclusive: 50.1 µM [inhibitor, partial curve]",
Cc1ccc(NC(=O)Nc2cn(CC(C)C)c(=O)c3ccccc23)cc1N(C)C,"inconclusive: 39.8 µM [inhibitor, partial curve]",
COc1ccc(-c2cc(C(C)=O)c(C)n2CCC(=O)NCc2ccc(C)cc2)cc1,"inconclusive: 50.1 µM [inhibitor, partial curve]",
CCC1=NN2C(=N)/C(=C\c3cccn3-c3ccc(C)cc3C)C(=O)N=C2S1,"inconclusive: 44.7 µM [inhibitor, partial curve]",
CCOC(=O)c1ccc2c(c1)nc(SCC(=O)c1ccco1)n2CC,"inconclusive: 89.1 µM [inhibitor, single point]",
COCCCNCCCCOc1ccccc1-c1ccccc1,active: 79.4 µM,
O=C(O)c1cnc2[nH]c3ccccc3n2c1=O,"inconclusive: 35.5 µM [inhibitor, single point]",
COc1ccc(CNc2ncnc3c2[nH]c2cc(OC)c(OC)cc23)cc1,"inconclusive: 63.1 µM [inhibitor, single point]",
NC(=S)N=Nc1c(O)[nH]c2ccccc12,"inconclusive: 10 µM [inhibitor, partial curve]",

SMILES,Potency,"activity change, negative = inhibition"
C/C(=C\c1ccccc1)CN1CCN(c2ccccc2F)CC1,active: 5.01 µM,
COC(=O)Nc1nc2ccc(Br)cc2s1,,inactive: -15.1%
CC(CN1CCN(C)CC1)OC(=O)c1ccc(Cl)cc1 (configuration not stated),"inconclusive: 22.4 µM [inhibitor, partial curve]",
NC(=O)C1CCN(c2oc(-c3cccs3)nc2S(=O)(=O)c2ccc(Br)cc2)CC1,"inconclusive: 56.2 µM [inhibitor, partial curve]",
CCOC(=O)N1CCC(N(CCOC)C(=S)Nc2cccc(SC)c2)CC1,,inactive: -23.3%
CC(NC(=O)CN1CCN(c2cccc(Cl)c2)CC1)c1ccccc1 (configuration not stated),,inactive: -11.8%
COc1ccc(CNC(=O)C2=CC(c3cccc(OC)c3)=NS(=O)(=O)N2C)cc1,"inconclusive: 79.4 µM [inhibitor, partial curve]",
C/C(=N\Nc1nc2ccccc2s1)c1cccs1,"inconclusive: 44.7 µM [inhibitor, full curve]",
N#Cc1c(-c2ccco2)cc(-c2ccccc2)[nH]c1=O,"inconclusive: 56.2 µM [inhibitor, partial curve]",
Cc1[nH]n(-c2ccccc2)c(=O)c1N=Nc1ccc(F)cc1,"inconclusive: 2.24 µM [inhibitor, full curve]",
COC(=O)C1=C(C)N(Cc2ccccc2)C(=NCc2cc(OC)c(OC)c(OC)c2)N[C@H]1CCc1ccccc1,"inconclusive: 12.6 µM [inhibitor, full curve, poor fit]",
CN(O)C(=S)c1ccccc1,"inconclusive: 39.8 µM [inhibitor, partial curve]",
Cc1ccc(N2CC(C(=O)OCC(=O)c3ccc([N+](=O)[O-])cc3)CC2=O)cc1 (configuration not stated),,inactive: -13.4%
CCCOc1ccc(OC(=O)c2cn(-c3ccc(OC)cc3)c(=O)c3ccccc23)cc1,,inactive: -8.71%
COc1ccc(C(C[N+](=O)[O-])c2c(C)cc3ccccn23)cc1 (configuration not stated),"inconclusive: 25.1 µM [inhibitor, partial curve]",
CC(C)OC(=O)CSc1nc(-c2ccc(F)cc2)nc2ccc(F)cc12,,inactive: -15.3%
CCCS(=O)(=O)c1cscc1NC(=O)c1c(-c2c(F)cccc2Cl)noc1C,"inconclusive: 63.1 µM [inhibitor, partial curve]",
Cc1cc(C)cc(NC(=O)CSc2nnc(CNC(=O)c3ccco3)n2C)c1,,inactive: -7.14%
COc1ccc(C(=O)NC(=S)Nc2ccccc2N2CCCCC2)cc1[N+](=O)[O-],"inconclusive: 28.2 µM [inhibitor, single point]",
CCCOc1ccc(C(=O)Nc2ccc3oc(-c4ccc(N(C)C)cc4)nc3c2)cc1,,inactive: -14.7%
O=C(O)c1ccc(-n2cccc2/C=C2/SC(=O)N(CC(=O)N3CCCC3)C2=O)cc1,active: 10 µM,
O=C(CCl)N1CCN(S(=O)(=O)c2ccc3c(c2)CCC3)CC1,,inactive: -11.3%
CN(CC(=O)Nc1ccc(Cl)c(Cl)c1)C1CCCCC1,active: 22.4 µM,
Cc1ccc(C2CC(C(F)(F)F)n3ncc(C(=O)NCc4ccco4)c3N2)cc1 (configuration not stated),"inconclusive: 50.1 µM [inhibitor, partial curve]",
